From PubChem BioAssay (NCI)
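Compound exposure: 48 hours, 5 concentrations, 96-well plates. The concentration for 50% growth inhibition is given as GI50. Definition used: TGI = concentration required for complete inhibition of growth.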

Test system: NCI-H322M lung
Experiment: NCI-60 cell line screen, 48 h

Cc1ccc(C(=O)Nc2ccc(-n3ccnc3)c(C(F)(F)F)c2)cc1C#Cc1cnc2cccnn12 and Nc1n[nH]c2cccc(C#Cc3cccc(NC(=O)Nc4cc(C(F)(F)F)cc(C(F)(F)F)c4)c3)c12 are within 1.5-fold of each other in GI50: 3.4 µM for the first, 3.48 µM for the second.

Compared with OC(c1ccccc1)(c1ccccc1)C1CCN(c2ccc3nnc(Cl)n3n2)CC1, Clc1cccc(N/N=C/c2c[nH]c3ccccc23)n1 is 1.7-fold lower in GI50: 19.5 µM for the first, 11.4 µM for the second.

C=CC[Se]C(=O)c1ccc(C(=O)[Se]CC=C)s1 was tested, and the GI50 was 0.11 µM.

Compared with Cc1ccc(C(=O)Nc2ccc(-n3ccnc3)c(C(F)(F)F)c2)cc1C#Cc1cnc2cccnn12, Nc1n[nH]c2cccc(C#Cc3cccc(NC(=O)Nc4cc(C(F)(F)F)cc(C(F)(F)F)c4)c3)c12 is lower in TGI: over 45.8 µM for the first, 13 µM for the second.

First: OC(c1ccccc1)(c1ccccc1)C1CCN(c2ccc3nnc(Cl)n3n2)CC1
Second: Clc1cccc(N/N=C/c2c[nH]c3ccccc23)n1
The TGI of the first is 2.3-fold higher: 57.4 µM for the first, 25.4 µM for the second.

In the case of C=CC[Se]C(=O)c1ccc(C(=O)[Se]CC=C)s1, the TGI is reported as 0.872 µM.
